Over roughly 110,000 compounds, “z-score” has its median near -0.1; the highest 2% begin near 2. The list shows a part of the results. Calls of active or inactive are those of the source.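 How the source made its calls: active means z-score in the third read window above 3 or below -3; inactive means the rest.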

This passage reports z-score results from PubChem BioAssay AID488969 (Vanderbilt High Throughput Screening Facility, 2010).

The target in the experiment is Metabotropic glutamate receptor 8 (Rattus norvegicus) (UniProt P70579). Nature of the experiment: rat mGluR8 modulators via GIRK flux, primary screen, cell-based, thallium flux, HTS (AID 488969). Conditions: HEK293 rat mGluR8, GIRK (G protein-gated inwardly rectifying potassium channel) thallium flux, FluoZin2; at 10 µM; stronger effect = higher value; submaximal glutamate (EC20) added with thallium.
Sequence of UniProt P70579 (P70579 whole entry, looked up): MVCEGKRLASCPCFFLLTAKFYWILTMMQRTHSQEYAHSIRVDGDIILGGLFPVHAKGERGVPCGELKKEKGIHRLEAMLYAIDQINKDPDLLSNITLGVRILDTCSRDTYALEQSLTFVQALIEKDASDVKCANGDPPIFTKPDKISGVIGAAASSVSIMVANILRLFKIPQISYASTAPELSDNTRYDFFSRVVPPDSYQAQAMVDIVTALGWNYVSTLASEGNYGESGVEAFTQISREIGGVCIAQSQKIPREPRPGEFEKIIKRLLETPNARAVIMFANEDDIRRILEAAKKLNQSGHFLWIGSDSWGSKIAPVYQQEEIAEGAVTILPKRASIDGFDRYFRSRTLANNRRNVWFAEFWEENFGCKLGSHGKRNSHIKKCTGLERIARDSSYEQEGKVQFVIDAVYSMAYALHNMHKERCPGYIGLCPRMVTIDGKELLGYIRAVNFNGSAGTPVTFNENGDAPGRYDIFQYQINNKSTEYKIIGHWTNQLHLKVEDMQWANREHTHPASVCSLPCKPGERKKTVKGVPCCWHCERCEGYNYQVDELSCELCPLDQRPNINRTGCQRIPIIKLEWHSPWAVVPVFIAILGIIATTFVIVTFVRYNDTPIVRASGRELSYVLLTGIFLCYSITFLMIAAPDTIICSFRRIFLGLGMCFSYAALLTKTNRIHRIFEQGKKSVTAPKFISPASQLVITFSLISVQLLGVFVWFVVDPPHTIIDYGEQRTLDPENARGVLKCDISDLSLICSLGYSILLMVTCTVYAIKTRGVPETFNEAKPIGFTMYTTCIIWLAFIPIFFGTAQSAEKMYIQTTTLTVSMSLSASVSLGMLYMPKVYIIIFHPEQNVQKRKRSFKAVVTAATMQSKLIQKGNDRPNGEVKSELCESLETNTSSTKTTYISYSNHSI
`Cn1c2ccccc2c2nnc(SCc3ccc4nonc4c3)nc21` displayed a z-score of -0.104.

In turn, `CCOc1ccccc1CNCCO` showed a z-score of -0.212.

Take `O=C(C[n+]1ccc(C(=O)N/N=C/c2ccc(O)cc2)cc1)c1ccccc1`: the z-score is -0.119.

As to `CSCCC1NC2(C(=O)Nc3c(C)cc(Cl)cc32)[C@@H]2C(=O)N(C3CCCC3)C(=O)[C@H]12` (some centres undefined), the z-score was -1.13.

For the molecule `O=C(CN1CCCN(S(=O)(=O)c2ccc(Br)cc2)CC1)Nc1ccc2c(c1)OCO2`, the z-score is -0.0432.

As to `N#C/C(C(=O)c1ccccc1)=C1/CCCN1`, the z-score was -0.528.

On to `Cc1ccc(S(=O)(=O)N2CCOCC2)cc1NC(=O)COC(=O)CNC(=O)c1ccc(Oc2ccccc2)cc1`, for which the z-score came out at 0.515.

The molecule `O=C1NC(=S)N/C1=C/c1cc([N+](=O)[O-])ccc1O` showed a z-score of 0.183.

In the case of `Cn1c(COc2ccccc2)nnc1SCCN1CCOCC1`, the z-score amounted to 0.807.

Turning to `COc1ccccc1NC(=O)Nc1nnc(-c2ccco2)s1`, the z-score was -0.166.

`COc1ccc(N2CCN(S(=O)(=O)c3ccc(OC)cc3)CC2)cc1` had a z-score of -0.166.

For `COc1cc(C(=O)NC(=S)Nc2cccc(-c3cc4ccccc4oc3=O)c2)cc(OC)c1OC`, the z-score was -0.405.

The molecule `O=C(/C=C/c1ccccc1)NC(=S)Nc1ccccc1C(=O)NC1CCCCC1` came in with a z-score of -0.0243.

Molecule `Cc1cccc(NC(=O)c2cc3ccccc3o2)c1` yielded a z-score of -1.37.

As to `COc1ccc(NC(=O)CN2CCN(C(=O)c3ccco3)CC2)c(OC)c1`, the z-score came to 0.598.

For `C=CCOc1c(Cl)cc(CNCCC)cc1Cl`, the z-score turned out to be 1.03.

As to `COc1ccc(-c2cc3n(n2)CCc2nc4ccccc4n2-3)cc1`, the z-score is -0.684.

With `Cc1ccc(S(=O)(=O)Nc2nc(C)cc(-n3nc(C)cc3C)n2)cc1`, the z-score is -0.278.

In turn, `CCOC(=O)N1CCC(NC(=O)c2ccc3c(c2)N(Cc2ccc(F)cc2)CCS3)CC1` displayed a z-score of -0.529.

Molecule `CCOC(=O)CC(NC(=O)C(CC)c1ccccc1)c1ccccc1Cl` (centres undefined) gave a z-score of -0.105.

For the molecule `Cn1c2c(c(=O)n(C)c1=O)C(CC(=O)Nc1ccccc1)C(=O)N2` (centres undefined), the z-score was -0.0672.

`Cc1ccc(C(=O)/C=C/C(=O)O)cc1`: the z-score is 0.845.

The molecule `CC(=O)n1nc(-c2ccco2)nc1N` showed a z-score of 0.38.

`N#Cc1c2n(c3c(=O)n(Cc4ccc(Cl)cc4)cnc13)CCCC2` displayed a z-score of -0.29.

`CN1CCN(Cc2cc(=O)oc3cc4c(cc23)CCC4)CC1` registered a z-score of 0.745.

`Cc1ccc(Cn2nc(C)c(NC(=O)CCCn3nc(C)c([N+](=O)[O-])c3C)c2C)cc1` displayed a z-score of -0.238.

Consider `COC(=O)c1ccccc1NC(=O)CSc1nc(NC(=O)c2ccccc2)c2c(C)c(C)oc2n1`, for which the z-score was -0.997.

Molecule `O=C(Nc1ccc(Cl)c(Cl)c1)Nc1ccc(N2CCCC2)c(S(=O)(=O)Nc2ccccc2Cl)c1` displayed a z-score of 0.0419.

`CCOC(=O)/C(=N/Nc1ccc(Cl)cc1)Sc1nnnn1-c1ccc(C)cc1` gave a z-score of -0.132.

For `Cc1ocnc1C(=O)Nc1ccc(Cl)cc1`, the z-score was 0.123.

For the molecule `CCC1CCCCN1c1nc(-c2cccc(OC)c2O)nc2ccccc12` (centres undefined), the z-score was -0.667.

Take `CC(C)(C)OC(=O)N1CCCC1C(=O)N1CCc2ccccc21` (centres undefined): the z-score is -0.138.

Molecule `COCCCNCCCCOc1cccc(Br)c1` gave a z-score of 0.266.

`COc1ccc(N2CCN(S(=O)(=O)c3cccc4cccnc34)CC2)cc1` gave a z-score of -1.52.

For `COc1cc(/C=N/NC(=O)C(=O)NCc2cccnc2)cc(OC)c1OC`, the z-score is -0.176.

Molecule `Cc1ccccc1S(=O)(=O)Cc1ccc(C(=O)NCCCOC(C)C)o1` had a z-score of -2.92.

`Cc1ccc(-c2c(C#N)c(N)nc3c2CCCCC3)cc1` registered a z-score of -0.181.

Take `Cc1ccc(S(=O)(=O)NCC(=O)N(CC(=O)NCc2ccco2)Cc2ccc3c(c2)OCO3)cc1`: the z-score was -0.622.

`CCc1nnc(NC(=O)c2sc3nc4c(cc3c2N)CCCCCC4)s1`: the z-score is -0.441.

The molecule `COC(=O)c1cc(C(=O)c2cccc(Cl)c2Cl)cn1C` came in with a z-score of -0.263.

Consider `CCOc1ccc(C(=O)Nc2nc(C)cc(C)n2)cc1[N+](=O)[O-]`, for which the z-score was -0.36.

Regarding `COc1ccc(NC(=S)NC(NC(=O)c2cccc(C)c2)C(Cl)(Cl)Cl)c([N+](=O)[O-])c1` (centres undefined), the z-score is -0.54.

Regarding `COc1ccc(N2C(=O)CCC(C(=O)Nc3ccccn3)C2c2ccc(OC)c(OC)c2)cc1` (centres undefined), the z-score came out at 0.443.

Consider `CCc1ccc2c(c1)cc(CN(C(=S)Nc1cccc(C)c1)C1CC1)c1nnnn12`, for which the z-score was -0.0835.

The molecule `CCOc1cccc(C(=O)Nc2cccc(-c3nnc(-c4ccc(C)cc4)o3)c2)c1` returned a z-score of 0.689.

`CC(C)(C)NC(=O)COC(=O)c1cc(S(=O)(=O)N2CCCCC2)ccc1N1CCOCC1` came in with a z-score of -0.0774.

For `Cc1ccc(CNC(=O)c2c(C)cc(=O)oc2C)cc1`, the z-score came to 0.0838.

The molecule `COc1ccc(CCNC(=O)C2CCCN(Cc3nc(-c4ccccc4C)oc3C)C2)cc1OC` (centres undefined) registered a z-score of 0.679.

Take `CN(C)c1nc(N2CCN(c3ccccc3)CC2)c(C#N)c(=O)o1`: the z-score was -0.0521.

Consider `N#CCc1ccc(NC(=O)Nc2cccc(Cl)c2)cc1`, for which the z-score was -0.288.

Molecule `O=C(CN(C1CCCCC1)S(=O)(=O)c1ccc(F)cc1)Nc1ccc2c(c1)OCO2` gave a z-score of 0.327.

`COCCN(C(=S)Nc1ccccc1C)C(C)c1cccnc1` (centres undefined): the z-score is -0.417.

On to `Cc1ccc[n+](/C(C(=S)NCc2ccco2)=C(/[O-])c2ccccc2Cl)c1`, for which the z-score was 0.0163.

`Cc1ccc2c(c1)N(CCC(=O)NCc1cccnc1)C(=O)CO2`: the z-score was -0.561.

In turn, `Cc1nn2c(CN(C(=O)CN3CCOCC3)c3ccccc3)nnc2c2ccccc12` came in with a z-score of 0.232.

As for `COc1cc(N2C(=O)c3ccccc3C2=O)c(Cl)cc1C(=O)OCC(=O)NCc1ccco1`, the z-score was 0.165.

The molecule `CCN(CCCNC(=O)C1CCCN(S(=O)(=O)c2cnc[nH]2)C1)c1ccccc1` (centres undefined) came in with a z-score of 0.079.

Consider `Cc1cc(NC(=O)CSc2cn(CCNC(=O)c3ccccc3)c3ccccc23)no1`, for which the z-score was -0.136.

`Cc1cccc(NC(=S)NCC(c2cccnc2)N2CCOCC2)c1C` (centres undefined) registered a z-score of -0.228.

`Cc1c(C(Nc2ccccn2)c2ccccc2)c(=O)n(-c2ccccc2)n1C` (centres undefined) had a z-score of -0.574.

With `CCOC(=O)c1cnc(SCC(=O)c2ccc(C)cc2)nc1N`, the z-score is -0.172.

Molecule `CCC(C)N1CC(C(=O)NC2CCCCC2)CC1=O` (centres undefined) yielded a z-score of 0.0107.

`CC(=O)N1CCC(N(CCN2CCOCC2)C(=S)Nc2cccc(C)c2C)CC1`: the z-score is -0.226.

For `Cc1csc(SCC(=O)Nc2nc3ccccc3s2)n1`, the z-score is active: 3.3.

For the molecule `CCn1c(=O)[nH]c2cc(C(=O)N3CCN(c4ccccc4)CC3)ccc2c1=O`, the z-score was -0.141.

On to `Cc1cccc(NC(=S)/N=C(\N)Nc2nc(C)c3cc(C)ccc3n2)c1`, for which the z-score was -0.139.

Molecule `CN(Cc1ccccc1)Cc1nc2c(c(=O)n(C)c(=O)n2C)n1Cc1ccc(Cl)cc1` gave a z-score of -0.301.

Take `CCOc1ccc(CCn2c(-c3ccco3)nc3ccccc3c2=O)cc1OCC`: the z-score is -0.167.

Molecule `CCOC(=O)c1c(C)nc2c(c1-c1ccc(Cl)cc1)C(=O)CC(C)(C)C2` showed a z-score of -1.24.

Molecule `O=C(NCc1ccco1)c1ccc(N2CCCC2=O)cc1` had a z-score of -1.41.

In the case of `Cc1cccc(NC(=S)NCCc2ccc(S(N)(=O)=O)cc2)c1C`, the z-score turned out to be 0.061.

Turning to `COc1ccc(NC(=O)C(OC)c2ccccc2)cc1Cl` (centres undefined), the z-score was -0.172.

The molecule `Cc1c(C(=O)OC(C)C)sc2nc[nH]c(=O)c12` came in with a z-score of 0.168.

Take `COc1cc(NC(=O)CN2c3ccccc3CC2C)cc(OC)c1OC` (centres undefined): the z-score was 0.186.

On to `CCCOC(=O)C1C2C=CC(C3CC23)C1C(=O)OCC(=O)c1ccccc1` (centres undefined), for which the z-score is -0.407.

The molecule `COc1ccc(-c2noc(CCC(=O)Nc3nc4ccccc4s3)n2)cc1` returned a z-score of -0.165.

`CCOc1ccc(OCC(=O)NCCc2nc3ccccc3[nH]2)cc1` registered a z-score of 0.585.

With `CCOC(=O)CSc1nc(C(C)(C)C)cc(C(F)(F)F)c1C#N`, the z-score amounted to 0.256.

The molecule `O=C(O)COc1ccc2nsnc2c1Cl` showed a z-score of 0.463.

The molecule `CCOC(=O)c1c(-c2ccc(C)cc2)csc1NC(=S)NC(=O)c1ccccc1` registered a z-score of 0.153.

With `CC(C)(C)OC(=O)NCCc1nnc(SCc2ccccc2Cl)o1`, the z-score is -0.771.

As to `Cc1nc(SCC(=O)N2CCc3ccccc32)n[nH]1`, the z-score is -0.751.

`COc1ccccc1-c1nnc2sc(-c3ccc(N(C)C)cc3)nn12` displayed a z-score of -1.04.

For `COC(=O)Cn1cnc(=O)c(C#N)c1/C=C/N(C)C`, the z-score stood at 0.0758.

The molecule `CCCCOC(=O)C1[C@H]2C(=O)N(CCc3ccccc3)C[C@]23C=C[C@H]1O3` (some centres undefined) gave a z-score of -0.21.

Molecule `Cc1ccc2nc(C3CCN(S(=O)(=O)c4ccc5ccccc5c4)CC3)[nH]c2c1` gave a z-score of -0.139.

As to `CCNC(=O)c1ccc2c(c1)C1C3CCC(C3)C1C(c1ccccc1)N2` (centres undefined), the z-score was -0.135.

In the case of `Cc1ccc(C)c(N2CCN(C(=O)CSc3ccsc3[N+](=O)[O-])CC2)c1`, the z-score was -0.509.

In turn, `O=C(c1ccccc1NS(=O)(=O)c1ccc(Br)s1)N1CCOCC1` gave a z-score of -0.0452.

`CCOC(=O)CSc1nc2sccc2c(=O)[nH]1` showed a z-score of 0.0125.

In the case of `CCCCCSc1nc(O)cc(=O)[nH]1`, the z-score was -0.0443.

With `O=C(COC(=O)c1cccc(S(=O)(=O)NCc2ccccc2)c1)Nc1ccccc1OC(F)F`, the z-score is 0.042.

In turn, `Cn1c(=O)c2c(nc(SCCN3CCOCC3)n2Cc2cccc3ccccc23)n(C)c1=O` registered a z-score of -1.48.

For `Cc1nc2ccc(NC(=O)Cc3ccsc3)cc2s1`, the z-score is 0.12.

Take `Cc1ccc(S(=O)(=O)N/N=C/c2ccc(OC3CSC3)cc2)cc1`: the z-score was found to be 1.93.

`Cc1nnc(-c2cnn(C)c2N)n1Cc1cccc(Cl)c1` came in with a z-score of -0.116.

With `C=CCOc1ccc(C2C(C#N)=C(N)N(Nc3ccccc3)C3=C2C(=O)CC(C)(C)C3)cc1OC` (centres undefined), the z-score was -0.315.

Molecule `Cc1cccc(-c2cc3nc(C)cc(N4CC(C)CC(C)C4)n3n2)c1` (centres undefined) returned a z-score of -0.214.

Consider `Clc1ccc(COn2c(-c3ccc(Cl)cc3Cl)nc3ncccc32)cc1`, for which the z-score was found to be 0.283.

Take `CCCCC(=O)Nc1ccccc1C(=O)N1CCOCC1`: the z-score turned out to be 0.0261.

Molecule `C=CCNC(=S)N/N=C/c1cn(-c2ccccc2)nc1-c1ccc(OC)cc1` registered a z-score of -0.184.

`Cc1nc(NC(=O)c2ccc(Br)s2)sc1C(=O)N(C)C`: the z-score came to 0.655.

Regarding `c1ccc(Cn2nnnc2C(c2cccs2)N2CCSCC2)cc1` (centres undefined), the z-score was -0.15.

The molecule `CC(C)=CC(=O)OCC(=O)Nc1cccc([N+](=O)[O-])c1` gave a z-score of 0.144.

As for `COC(=O)C1(C(O)C(=O)c2ccc(C)cc2C)CCCCC1` (centres undefined), the z-score is -0.653.

For `CCC(C(=O)Nc1cc(C)nn1-c1nc(C)cc(C)n1)c1ccccc1` (centres undefined), the z-score was -0.589.

Turning to `COc1ccc(OCc2nc3ccccc3[nH]2)cc1`, the z-score worked out at 0.101.

In turn, `CCN(CC)c1cnn(C/C(=N\OC)c2ccc(Cl)cc2)c(=O)c1Br` came in with a z-score of -1.37.

On to `CC1CCc2c(sc(NC(=O)C(=O)NCc3ccco3)c2C#N)C1` (centres undefined), for which the z-score was active: 11.4.
